# Source: the supplement of paper PMC8728848
# The other results are listed elsewhere or left out.
# B1: Tectonin 2 (Laccaria bicolor) (protein)
# chain: MPWKGISGSLSRISAGSVTNVWGVNAANNIYRYTGDDAKPWVQIPGALTDIGAAADGTVWGVNAAGNIYRYVWDSNHWTQIKGALKRISAGSRTNVWGVNAGGAIYRYTGDDANPWVQIPGVLSDIGAGADGTVWGVNAAGEIYRYTGDQGDPNHWVKIPGALSAISAGIKTNVWGVNSANNIYTSTGDDKNPWLGIGGSLVDIGAGTDGVVWGVNAGGGIYRWIRD
# Columns and labels:
# Test in all cases: glycan array binding signal (z-score within array); higher = stronger binding
# Conditions in all cases: glycan notation: IUPAC condensed, linker removed
# [1] = molecular target: GlcNAc(a1-4)Gal(b1-4)GlcNAc(b1-3)Gal(b1-4)Glc
# In short: (§1)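 The binding signal is a Z-score computed within each array and averaged over linkers. Arrays of the same protein sequence at different concentrations or buffers were also averaged together. Data originate from 3228 arrays in the Consortium for Functional Glycomics database, kept only where the protein sequence was available.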
# [2] = molecular target: GlcNAc(a1-4)Gal(b1-4)GlcNAc(b1-3)Gal(b1-4)GlcNAc
# In short: as §1
# [3] = molecular target: GlcNAc(a1-4)Gal(b1-4)GlcNAc(b1-3)Gal(b1-4)GlcNAc(b1-3)Gal(b1-4)GlcNAc
# In short: as §1
# [4] = molecular target: GlcNAc(a1-4)Gal(b1-4)GlcNAc(b1-3)Gal(b1-4)[Fuc(a1-3)]GlcNAc(b1-3)Gal(b1-4)[Fuc(a1-3)]GlcNAc
# In short: as §1
# [5] = molecular target: GlcNAc(a1-6)Gal(b1-4)GlcNAc
# In short: as §1
# [6] = molecular target: GlcNAc(b1-2)Gal(b1-3)GalNAc
# In short: as §1
# [7] = molecular target: GlcNAc(b1-2)Man(a1-3)[GlcNAc(b1-2)Man(a1-6)]Man(b1-4)GlcNAc(b1-4)GlcNAc
# In short: as §1
# [8] = molecular target: GlcNAc(b1-2)Man(a1-3)[GlcNAc(b1-2)Man(a1-6)]Man(b1-4)GlcNAc(b1-4)[Fuc(a1-6)]GlcNAc
# In short: as §1
# [9] = molecular target: GlcNAc(b1-2)Man(a1-3)[GlcNAc(b1-4)][GlcNAc(b1-2)Man(a1-6)]Man(b1-4)GlcNAc(b1-4)GlcNAc
# In short: as §1
# [10] = molecular target: GlcNAc(b1-2)[GlcNAc(b1-4)]Man(a1-3)[GlcNAc(b1-2)Man(a1-6)]Man(b1-4)GlcNAc(b1-4)GlcNAc
# In short: as §1
# [11] = molecular target: GlcNAc(b1-2)[GlcNAc(b1-4)]Man(a1-3)[GlcNAc(b1-4)][GlcNAc(b1-2)Man(a1-6)]Man(b1-4)GlcNAc(b1-4)GlcNAc
# In short: as §1
# [12] = molecular target: GlcNAc(b1-2)[GlcNAc(b1-4)]Man(a1-3)[GlcNAc(b1-4)][GlcNAc(b1-2)[GlcNAc(b1-6)]Man(a1-6)]Man(b1-4)GlcNAc(b1-4)GlcNAc
# In short: as §1
# [13] = molecular target: GlcNAc(b1-2)[GlcNAc(b1-6)]Man(a1-6)[GlcNAc(b1-2)Man(a1-3)]Man(b1-4)GlcNAc(b1-4)GlcNAc
# In short: as §1
# [14] = molecular target: GlcNAc(b1-2)[GlcNAc(b1-6)]Man(a1-6)[GlcNAc(b1-2)Man(a1-3)][GlcNAc(b1-4)]Man(b1-4)GlcNAc(b1-4)GlcNAc
# In short: as §1
# GlcNAc(b1-3)Gal = molecular target: GlcNAc(b1-3)Gal
# In short: as §1
# [15] = molecular target: GlcNAc(b1-3)Gal(b1-3)GalNAc
# In short: as §1
# GlcNAc(b1-3)Gal(b1-4)Glc = molecular target: GlcNAc(b1-3)Gal(b1-4)Glc
# In short: as §1
# [16] = molecular target: GlcNAc(b1-3)Gal(b1-4)GlcNAc
# In short: as §1
# [17] = molecular target: GlcNAc(b1-3)Gal(b1-4)GlcNAc(b1-3)Gal(b1-4)GlcNAc
# In short: as §1
# GlcNAc(b1-3)GalNAc = molecular target: GlcNAc(b1-3)GalNAc
# In short: as §1
# GlcNAc(b1-3)Man = molecular target: GlcNAc(b1-3)Man
# In short: as §1
# [18] = molecular target: GlcNAc(b1-3)[GlcNAc(b1-4)][GlcNAc(b1-6)]GlcNAc
# In short: as §1
# [19] = molecular target: GlcNAc(b1-3)[GlcNAc(b1-6)]Gal(b1-4)GlcNAc
# In short: as §1
# [20] = molecular target: GlcNAc(b1-3)[GlcNAc(b1-6)]GalNAc
# In short: as §1
# [21] = molecular target: GlcNAc(b1-4)Gal(b1-4)GlcNAc
# In short: as §1
# GlcNAc(b1-4)GlcNAc = molecular target: GlcNAc(b1-4)GlcNAc
# In short: as §1
# [22] = molecular target: GlcNAc(b1-4)GlcNAc(b1-4)GlcNAc
# In short: as §1
# [23] = molecular target: GlcNAc(b1-4)GlcNAc(b1-4)GlcNAc(b1-4)GlcNAc(b1-4)GlcNAc
# In short: as §1
# [24] = molecular target: GlcNAc(b1-4)GlcNAc(b1-4)GlcNAc(b1-4)GlcNAc(b1-4)GlcNAc(b1-4)GlcNAc
# In short: as §1
# [25] = molecular target: GlcNAc(b1-4)[GlcNAc(b1-6)]GalNAc
# In short: as §1
# [26] = molecular target: GlcNAc(b1-6)Gal(b1-4)GlcNAc
# In short: as §1
# GlcNAc(b1-6)GalNAc = molecular target: GlcNAc(b1-6)GalNAc
# In short: as §1
# GlcNAc3Prop(b1-4)GlcNAc = molecular target: GlcNAc3Prop(b1-4)GlcNAc
# In short: as §1
# [27] = molecular target: GlcNAc6S(b1-3)Gal(b1-4)GlcNAc
# In short: as §1
# Kdn(a2-3)Gal(b1-3)GalNAc = molecular target: Kdn(a2-3)Gal(b1-3)GalNAc
# In short: as §1
# Kdn(a2-3)Gal(b1-3)GlcNAc = molecular target: Kdn(a2-3)Gal(b1-3)GlcNAc
# In short: as §1
# Kdn(a2-3)Gal(b1-4)Glc = molecular target: Kdn(a2-3)Gal(b1-4)Glc
# In short: as §1
# Kdn(a2-3)Gal(b1-4)GlcNAc = molecular target: Kdn(a2-3)Gal(b1-4)GlcNAc
# In short: as §1
# [28] = molecular target: Kdn(a2-3)Gal(b1-4)[Fuc(a1-3)]GlcNAc
# In short: as §1
# Kdn(a2-6)Gal(b1-4)GlcNAc = molecular target: Kdn(a2-6)Gal(b1-4)GlcNAc
# In short: as §1
# [29] = molecular target: Man(a1-2)Man(a1-2)Man(a1-3)Man
# In short: as §1
# [30] = molecular target: Man(a1-2)Man(a1-2)Man(a1-6)[Man(a1-3)]Man
# In short: as §1
# Man(a1-2)Man(a1-3)Man = molecular target: Man(a1-2)Man(a1-3)Man
# In short: as §1
# [31] = molecular target: Man(a1-2)Man(a1-3)[Man(a1-2)Man(a1-6)]Man
# In short: as §1
# [32] = molecular target: Man(a1-2)Man(a1-3)[Man(a1-2)Man(a1-6)]Man(a1-6)[Man(a1-2)Man(a1-2)Man(a1-3)]Man
# In short: as §1
binder,measurement,setting,value
B1,glycan array binding signal (z-score),[1],-0.369
same,glycan array binding signal (z-score),[2],-0.238
same,glycan array binding signal (z-score),[3],-0.08
same,glycan array binding signal (z-score),[4],2.15
same,glycan array binding signal (z-score),[5],-0.426
same,glycan array binding signal (z-score),[6],-0.13
same,glycan array binding signal (z-score),[7],-0.319
same,glycan array binding signal (z-score),[8],0.258
same,glycan array binding signal (z-score),[9],-0.521
same,glycan array binding signal (z-score),[10],-0.676
same,glycan array binding signal (z-score),[11],-0.327
same,glycan array binding signal (z-score),[12],0.046
same,glycan array binding signal (z-score),[13],-0.312
same,glycan array binding signal (z-score),[14],-0.392
same,glycan array binding signal (z-score),GlcNAc(b1-3)Gal,-0.423
same,glycan array binding signal (z-score),[15],-0.024
same,glycan array binding signal (z-score),GlcNAc(b1-3)Gal(b1-4)Glc,-0.406
same,glycan array binding signal (z-score),[16],-0.274
same,glycan array binding signal (z-score),[17],-0.22
same,glycan array binding signal (z-score),GlcNAc(b1-3)GalNAc,-0.388
same,glycan array binding signal (z-score),GlcNAc(b1-3)Man,-0.371
same,glycan array binding signal (z-score),[18],-0.295
same,glycan array binding signal (z-score),[19],-0.541
same,glycan array binding signal (z-score),[20],-0.21
same,glycan array binding signal (z-score),[21],0.024
same,glycan array binding signal (z-score),GlcNAc(b1-4)GlcNAc,-0.347
same,glycan array binding signal (z-score),[22],0.852
same,glycan array binding signal (z-score),[23],-0.334
same,glycan array binding signal (z-score),[24],-0.339
same,glycan array binding signal (z-score),[25],-0.451
same,glycan array binding signal (z-score),[26],-0.233
same,glycan array binding signal (z-score),GlcNAc(b1-6)GalNAc,-0.376
same,glycan array binding signal (z-score),GlcNAc3Prop(b1-4)GlcNAc,-0.156
same,glycan array binding signal (z-score),[27],0.191
same,glycan array binding signal (z-score),Kdn(a2-3)Gal(b1-3)GalNAc,-0.039
same,glycan array binding signal (z-score),Kdn(a2-3)Gal(b1-3)GlcNAc,0.042
same,glycan array binding signal (z-score),Kdn(a2-3)Gal(b1-4)Glc,-0.381
same,glycan array binding signal (z-score),Kdn(a2-3)Gal(b1-4)GlcNAc,-0.032
same,glycan array binding signal (z-score),[28],-0.338
same,glycan array binding signal (z-score),Kdn(a2-6)Gal(b1-4)GlcNAc,-0.239
same,glycan array binding signal (z-score),[29],-0.316
same,glycan array binding signal (z-score),[30],-0.42
same,glycan array binding signal (z-score),Man(a1-2)Man(a1-3)Man,-0.183
same,glycan array binding signal (z-score),[31],-0.408
same,glycan array binding signal (z-score),[32],-0.281
